“And” between values parts separate entries of the source, which are not always exact repeats. Identical values can stand only once. The inconclusive results got no clear call from the source; some entries with a clear call stand among them for comparison. Potencies of inconclusive entries are doubtful fits and often do not repeat. The source made the active and inactive calls. Calls come from the whole dose curve; as a rule, active = well fitted curve in the direction sought with a large enough effect; inconclusive = small, poorly fitted or top-dose-only effect, or another doubt; inactive = no such curve, though single readings can be large; an effect the other way counts as inactive or inconclusive.
Experiments:
[1] = NS1 protein of Zika virus - qHTS assay to identify small molecule inhibitors in human HEK 293 cells (AID 1347053); note: nearly all actives have a fitted effect of over 55% in size;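 for activity change, negative = inhibition: plate controls were infected untreated cells for no effect and uninfected cells for full effect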
Summary of the method: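 Read-out is a two-antibody TR-FRET for ZIKV NS1, normalized between uninfected cells and infected cells. Compound added 1 h before MR766 infection at MOI 0.5; human HEK 293 cells incubated 24 h, 37 C.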

[2] = qHTS of pediatric cancer cell lines to identify multiple opportunities for drug repurposing: Primary screen for TC32 cells (AID 1347089); note: nearly all actives have a fitted effect of over 60% in size; for activity change, negative = cytotoxic: % is set by controls: 0 for no effect and ±100 for the full control effect
Summary of the method: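 In the primary qHTS, MIPE compounds were tested at 11 concentrations (0.78 nM to 46 µM) and NPC compounds at 8 (0.59 nM to 46 µM) on TC32 cells for 48 h. CellTiter-Glo luminescence gave viability.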

[3] = qHTS of pediatric cancer cell lines to identify multiple opportunities for drug repurposing: Primary screen for DAOY cells (AID 1347090); settings: DAOY medulloblastoma viability, CellTiter-Glo luminescence, 48 h; activity change, negative = cytotoxic: at 46 µM (top of the series); note: nearly all actives have a fitted effect of over 55% in size
Summary of the method: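 Viability measured as metabolically active cells via CellTiter-Glo luminescence following 48 hours of compound exposure, 11-point dilutions in confirmatory testing. 500-1,000 cells/well plated 5 hours before dosing; controls were DMSO and 2.3 µM bortezomib.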

[4] = qHTS of pediatric cancer cell lines to identify multiple opportunities for drug repurposing: Primary screen for U-2 OS cells (AID 1347096); note: nearly all actives have a fitted effect of over 50% in size
Summary of the method: (§1)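 Viability after 48 h compound treatment at 37C, 500-1,000 cells/well, read as ATP luminescence with CellTiter-Glo. Primary screens used 11-point (MIPE, 0.78 nM-46 µM) or 8-point (NPC, 0.59 nM-46 µM) final concentrations; follow-up screens used 11-point dilutions.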

[5] = qHTS of pediatric cancer cell lines to identify multiple opportunities for drug repurposing: Primary screen for LAN-5 cells (AID 1347100)
Summary of the method: as §1

[6] = qHTS of pediatric cancer cell lines to identify multiple opportunities for drug repurposing: Primary screen for Rh30 cells (AID 1347107); note: nearly all actives have a fitted effect of over 75% in size; for activity change, negative = cytotoxic: % is set by controls: 0 for no effect and ±100 for the full control effect
Summary of the method: as §1

[7] = qHTS of pediatric cancer cell lines to identify multiple opportunities for drug repurposing: Primary screen for Rh41 cells (AID 1347108); note: nearly all actives have a fitted effect of over 70% in size
Summary of the method: (§2)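 Following a 5-hour attachment period, cells at 500-1,000/well received compounds and were cultured for 48 hours. CellTiter-Glo was added and luminescence read to estimate viable, metabolically active cells.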

[8] = qHTS of pediatric cancer cell lines to identify multiple opportunities for drug repurposing: Confirmatory screen for Rh30 cells (AID 1347126); settings: Rh30 rhabdomyosarcoma cell viability; activity change, negative = cytotoxic: at 45.9 µM (top of the series); note: nearly all actives have a fitted effect of over 55% in size
Summary of the method: as §1

[9] = Quantitative High-Throughput drug screen in 47 multiple myeloma cell lines against the NCATS MIPE library collection: JIM1_ECACC cell viability assay (AID 1918964)
Summary of the method: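 We plated 500 myeloma cells per well, pinned in MIPE 4.0 compounds, and incubated for 48 hours at 37C. ATP was then quantified with CellTiter-Glo, with DMSO and media-only wells defining 100% and 0%.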

[10] = qHTS of pediatric cancer cell lines to identify multiple opportunities for drug repurposing: Primary screen for RD cells (AID 1347104); note: nearly all actives have a fitted effect of over 55% in size
Summary of the method: as §2

[11] = tested on: Zika virus NS2B-NS3 protease; experiment: Primary screen GU AMC qHTS for Zika virus inhibitors (AID 1347154); note: nearly all actives have a fitted effect of over 70% in size;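 for activity change, negative = inhibition: 0% = no-inhibitor control and -100% = no-enzyme control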
Summary of the method: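 Unlinked Zika NS2B hydrophilic domain–NS3 protease complex at 25 nM in 10 mM Tris-HCl pH 8.0, 0.01% Tween 20, with an AMC peptide substrate. Fluorescence change (340/450 nm) over 15 min at room temperature, normalized to controls, fitted to 4-parameter Hill.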

[12] = Drug repurposing screens with cells derived from glioblastoma tumor samples (AID 1345199); settings: GBM patient neurospheres viability, ATP luminescence, 48 h; Potency: tumour line A unless noted; activity, negative = cell killing: at 46 µM (top of the series), tumour line A unless noted; note: nearly all actives have a fitted effect of over 40% in size; for activity, negative = cell killing: % is set by controls: 0 for no effect and ±100 for the full control effect
Summary of the method: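 Primary testing used CD133+ neurospheres from four GBM patients, seven concentrations, 48 h exposure and ATP-based viability; confirmation added three slower-growing patient lines.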

[13] = qHTS to identify inhibitors of the type 1 interferon - major histocompatibility complex class I in skeletal muscle: primary screen against the NCATS Mechanism Interrogation Plate v5.0 (MIPE) Libary (AID 1347411); settings: iHSKM cells + IFN-b, HiBiT-tagged MHC-I luminescence, 24 h; activity change, negative = inhibition: at 45.8 µM (top of the series); note: nearly all actives have a fitted effect of over 65% in size;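 for activity change, negative = inhibition: plate controls were vehicle for no effect and reference inhibitor for full effect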
Summary of the method: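 IFN-beta-driven (4 ng/ml) HLA-B-HiBit expression in CRISPR-tagged C25cl48 myoblasts; compounds 11-pt, 1:3, max 46 uM, 24 hr exposure; lytic NanoLuc complementation luminescence.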

MKL-2 = experiment: qHTS assay to identify novel small-molecules to repurpose for Merkel cell carcinoma treatment (AID 1296009); settings: MCC and control cell lines, CellTiter-Glo viability, 72 h; activity change, negative = cytotoxicity: at 46 µM (top of the series); note: nearly all actives have a fitted effect of over 60% in size
Summary of the method: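 CellTiter-Glo luminescence after 72 hr compound exposure at 37 degree celsius gave cell viability. Libraries NPC and MIPE were run as 8- and 11-point dose responses; RLUs normalized to DMSO (negative) and no-cell (cytotoxicity) controls.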

[14] = qHTS assay to identify inhibitors of the type 1 interferon - major histocompatibility complex class I in skeletal muscle: Counter screen cell viability and HiBit confirmation (AID 1347412); settings: iHSKM muscle cells + IFN-b, HiBiT or CellTiter-Glo, 24 h; note: nearly all actives have a fitted effect of over 60% in size
Summary of the method: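 Duplicate plates, pinned identically: one read for HiBiT-tagged endogenous HLA-B luminescence, the other for ATP-content viability via CellTiter Glo. Cells were genome-engineered human myoblasts given 4 ng/ml IFN-b; compounds 12-pt, 1:3 from 46 uM final; 24 hr exposure.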

[15] = target: Calcium and integrin-binding protein 1 (Homo sapiens) (UniProt Q99828); experiment: Primary qHTS for Identification of Calcium Integrin Binding Protein 1 (CIB1) Competitor (AID 1508620)
UniProt Q99828, sequence (Q99828 whole entry, looked up): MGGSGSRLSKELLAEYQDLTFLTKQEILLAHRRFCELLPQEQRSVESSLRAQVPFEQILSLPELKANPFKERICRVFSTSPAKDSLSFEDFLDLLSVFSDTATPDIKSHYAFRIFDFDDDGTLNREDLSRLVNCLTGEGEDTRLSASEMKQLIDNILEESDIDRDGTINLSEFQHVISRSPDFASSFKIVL
Summary of the method: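 Fluorescence polarization competition: GST-tagged CIB1 (1 uM final) preincubated with compound 15 min at room temperature, then FITC-labelled alphaIIb peptide (100 nM final) added. After 15 min at room temperature, polarization read at Ex 480/Em 540.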

[16] = target: Phospholipid hydroperoxide glutathione peroxidase GPX4 (Homo sapiens) (UniProt P36969); experiment: Primary qHTS Assay for Inhibitors of Recombinant Selenoprotein Glutathione Peroxidase 4 (GPX4) (AID 1845192); note: nearly all actives have a fitted effect of over 65% in size; for activity change, negative = inhibition: % is set by controls: 0 for no effect and ±100 for the full control effect
UniProt P36969, sequence (P36969 whole entry, looked up): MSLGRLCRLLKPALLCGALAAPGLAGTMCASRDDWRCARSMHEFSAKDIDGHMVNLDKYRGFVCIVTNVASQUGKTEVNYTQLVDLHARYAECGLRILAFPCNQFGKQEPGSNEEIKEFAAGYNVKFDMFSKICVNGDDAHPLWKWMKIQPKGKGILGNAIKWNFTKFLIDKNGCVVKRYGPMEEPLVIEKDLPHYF
Summary of the method: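 Steps: GPX4 plus compound, 30 min RT; add GR/GSH/NADPH master mix; start with cumene hydroperoxide; read 340/450 nm fluorescence at 0 and 15 min. Finals were 200 nM GPX4, 1 mM GSH, 0.5 mM CHP, 0.5 mM NADPH, 100 nM GR.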

[17] = qHTS of pediatric cancer cell lines to identify multiple opportunities for drug repurposing: Primary screen for SK-N-SH cells (AID 1347098); settings: SK-N-SH viability, CellTiter-Glo luminescence, 48 h; activity change, negative = cytotoxic: at 57 µM (top of the series); note: nearly all actives have a fitted effect of over 65% in size
Summary of the method: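 Cells (500-1,000/well) rested 5 h, then received compounds for 48 h; metabolically active cells were measured by CellTiter-Glo luminescence. Final concentrations spanned up to 46 µM (MIPE, 11-point) or 0.59 nM-46 µM (NPC, 8-point) in primary screens, 11-point in follow-ups.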
Potency is the fitted concentration of half-maximal effect; tags give direction and shape of the fitted curve.

## CC(=O)ON=C1C(c2c(O)[nH]c3cc(Br)ccc23)=Nc2ccccc21
[1]
  Potency: inconclusive: 37.2 µM [inhibitor, single point]
[2]
  Potency: inconclusive: 2.94 µM [cytotoxic, full curve, poor fit]
[3]
  Potency: inconclusive: 5.9 µM [cytotoxic, full curve]
[4]
  Potency: inconclusive: 14.8 µM [cytotoxic, single point]
[5]
  Potency: inconclusive: 18.7 µM [cytotoxic, single point]
[6]
  Potency: inconclusive: 14.8 µM [cytotoxic, partial curve]
[7]
  Potency: active: 2.96 µM
[8]
  Potency: inconclusive: 32.9 µM [cytotoxic, single point]
[9]
  Potency: active: 3.72 µM

## CC(C)N=C(N)/N=C(\N)Nc1ccc(Cl)cc1
[1]
  Potency: inactive
[10]
  Potency: inconclusive: 26.6 µM [cytotoxic, single point]
[6]
  Potency: inactive
[11]
  Potency: inactive
[12]
  Potency: inconclusive: 12.6 µM [inhibitor, partial curve]

## CCn1nnc2c(N3CCOCC3)nc(-c3ccc(NC(=O)Nc4ccc(C(=O)N5CCN(C)CC5)cc4)cc3)nc21
[1]
  Potency: inconclusive: 0.0935 µM [inhibitor, full curve, poor fit]
[4]
  Potency: inconclusive: 0.296 µM [cytotoxic, full curve]
[6]
  Potency: active: 7.43 µM
[7]
  Potency: active: 0.0935 µM
[8]
  Potency: active: 0.928 µM
[11]
  Potency: inconclusive: 0.0961 µM [inhibitor, full curve]
[13]
  Potency: inconclusive: 0.104 µM [inhibitor, full curve]
[9]
  Potency: inconclusive: 0.0209 µM [cytotoxic, full curve]
MKL-2
  Potency: active: 0.0105 µM
[14]; HiBiT
  Potency: inconclusive: 0.125 µM [inhibitor, full curve]
[14]; Viability
  Potency: active: 0.991 µM

## Nc1cccc2c(N)cccc12
[2]
  Potency: inconclusive: 42.8 µM [cytotoxic, single point]
[10]
  Potency: inconclusive: 21.7 µM [cytotoxic, partial curve]
[6]
  Potency: inconclusive: 27.3 µM [cytotoxic, partial curve, poor fit]
[7]
  Potency: active: 30.6 µM
[11]
  Potency: active: 36.9 µM
[15]
  Potency: inconclusive: 100 µM [inhibitor, partial curve]

## COc1ccc(C#Cc2ccc(C(=O)N3CCC[C@@H](CO)C3)cc2)cc1
[16]
  Potency: inactive

## N#Cc1c(C2CCNCC2)cc(-c2c(O)cccc2OCC2CC2)nc1N
[2]
  Potency: inconclusive: 20.8 µM [cytotoxic, single point]
[3]
  Potency: inconclusive: 5.9 µM [cytotoxic, partial curve]
[5]
  Potency: inconclusive: 29.6 µM [cytotoxic, single point]
[6]
  Potency: inconclusive: 10.5 µM [cytotoxic, partial curve]
[7]
  Potency: active: 14.8 µM
[8]
  Potency: inconclusive: 2.93 µM [cytotoxic, full curve]
[11]
  Potency: inconclusive: 0.271 µM [inhibitor, full curve, poor fit]
[16]
  Potency: inconclusive: 20.2 µM [inhibitor, single point]
[9]
  Potency: inconclusive: 14.8 µM [cytotoxic, partial curve, poor fit]
MKL-2
  Potency: inconclusive: 26.4 µM [inhibitor, single point]

## C[C@@H]1C[C@H]2[C@@H]3CCC4=CC(=O)C=C[C@]4(C)[C@@]3(Cl)[C@@H](O)C[C@]2(C)[C@@]1(OC(=O)c1ccco1)C(=O)CCl
[1]
  Potency: inconclusive: 26.4 µM [inhibitor, single point]
[2]
  Potency: inactive
[3]
  Potency: inconclusive: 33.5 µM [cytotoxic, single point]
[4]
  Potency: inconclusive: 21.1 µM [cytotoxic, single point] and active: 14.8 µM
[17]
  Potency: inconclusive: 13.7 µM [cytotoxic, partial curve] and active: 19.2 µM
[5]
  Potency: inconclusive: 23.7 µM [cytotoxic, single point]
[6]
  Potency: inconclusive: 5.26 µM [cytotoxic, partial curve]
[7]
  Potency: inconclusive: 13.3 µM [cytotoxic, partial curve] and inconclusive: 14.8 µM [cytotoxic, partial curve]
[8]
  Potency: inconclusive: 0.0414 µM [cytotoxic, full curve, poor fit]
[13]
  activity change, negative = inhibition: inconclusive: -78.5% [inhibitor]
[9]
  Potency: active: 7.43 µM
[12]
  Potency: inactive

Source: PubChem BioAssay (NCATS)
